Test results reported in PubChem BioAssay (NCATS).
The inconclusive results got no clear call from the source; some entries with a clear call stand among them for comparison. No potency is given beside an inconclusive call; the fits are too rough. Calls of active or inactive are those of the source. Calls come from the whole dose curve; as a rule, active = well fitted cell-killing curve with a large enough effect; inconclusive = small, poorly fitted or top-dose-only effect, or effect the other way, or another doubt; inactive = no such curve, though single readings can be large or run the other way.

assay: qHTS screen for small molecules that inhibit ELG1-dependent DNA repair: Hit Confirmation with 5FU Viability (AID 624250); details: cell viability with 5-FU; series mostly up to 46.1 µM
Source text: Cancer cells divide rapidly compared to normal cells in the body. During cell division, cancer cells need to duplicate their genome by DNA replication. The failure of genome duplication leads to cancer cells' death. Therefore, inhibitors of DNA replication could specifically kill cancer cells. Based on this concept, many chemotherapeutic agents were developed and have been used to treat cancer patients. However, there are a limited number of agents available in the clinical setting, and some of those that do exist have low efficacy and severe side effects. Therefore, if we can find the compounds that effectively block DNA replication either by directly damaging DNA or by inhibiting other cellular mechanisms, the options for cancer treatment will be broadened. With this in mind, we developed a quantitative high-throughput ELG1-luciferase reporter gene assay. Small molecules that specifically block ELG1 function in response to DNA damage can be identified by monitoring the suppression of luciferase activity. Since ELG1 defines a pathway for repairing DNA damage, agents blocking ELG1 function can be used to sensitize cancer cells to chemotherapeutic agents whose mechanism of action involves the induction of DNA damage.
NIH Molecular Libraries Probe Production Network [MLPCN]
NIH Chemical Genomics Center [NCGC]
Assay Provider: Kyungjae Myung, NHGRI, NIH
ELG1-luc HEK293T cells will be seeded in 1536-well plates at a density of 2,000 cells/well. Approximately 5 hours after plating, compounds will be added to the plate by pin tool transfer and 5-fluorouridine will be added by FRD dispenser (final concentration of 5-fluorouridine =10 µM). 16 hours following the addition of the compounds, cell viability will be measured using Cell Titer Glo.
Potency is the fitted concentration of half-maximal effect; tags give direction and shape of the fitted curve.

Compound	Potency
CC1(C)Cc2c(C#N)c(SCCOc3ccccc3)nc(N3CCOCC3)c2CO1	inconclusive [rising, full curve]
CC1(C)Cc2c(c(N3CCOCC3)nc3sc4c(NCc5ccco5)nnnc4c23)CS1	inconclusive [rising, full curve]
OCC1OC(n2cnc3c(=S)nc[nH]c32)C(O)C1O (stereo not given)	inconclusive [cytotoxic, partial curve, poor fit]
Cc1nc2sc3c(NCc4ccco4)ncnc3c2c2c1COC(C)(C)C2	inconclusive [rising, partial curve]
Cn1ncc(Br)c1C(=O)N/N=C/c1cccc(OC2CSC2)c1	inactive
COc1ccc(-n2c(C)c(C(C)=O)c3cc(O)ccc32)cc1	inactive
COc1ccc2c(c1OC)C(=O)N1c3ccccc3C(=O)N(c3ccccc3)C21 (stereo not given)	inactive
Cc1ccc(S(=O)(=O)N2CCCCC2c2cccnc2)c(C)c1C (stereo not given)	inactive
CCOc1cc(/C=N/Nc2cc(C)nc(-n3nc(C)cc3C)n2)ccc1O	inconclusive [cytotoxic, partial curve, poor fit]
CC1(C)Cc2c(c(N3CCOCC3)nc3snc(Br)c23)CO1	inconclusive [rising, partial curve]
